Test results taken from publication PMC5892938.
The other results are listed elsewhere or left out. At the low end of the ranking, values are background and their order means little.

target: GST-SBP-SLBP (stem-loop binding protein) (UniProt Q14493); assay: targeted RNA Bind-n-Seq; conditions: RBNS binding buffer: 25 mM Tris pH 7.5, 150 mM KCl, 3 mM MgCl2, 0.1% Tween, 0.5 mg/mL BSA, 1 mM DTT; 27 nM protein, 750 pM RNA pool; temperature not stated; high values mean tight binding;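 further: DESeq read counts versus GST-SBP nonspecific binding control pulldown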

Sequence | binding signal (log2 fold change)
GGUCACGUCUCAAUCAACUCAUACGAGGGGGGGAAAACCCCUUUACCCUCCACAUCAACAGCUCGCAGUCAAG | -0.191
GGUCACGUCUCAAUCAACUCUAGUCCCAGGGAAAGCCCUGGCAUAUUCAACAGCUCGCAGUCAAG | -0.244
GGUCACGUCUCAAUCAACUCAUCGCCCAGGGAAAUCCCUGGUAAUCUCAACAGCUCGCAGUCAAG | -0.438
GGUCACGUCUCAAUCAACUCAGUCCCCAGGGAAAGCCCUGGUUUUUUCAACAGCUCGCAGUCAAG | 0.1
GGUCACGUCUCAAUCAACUCAAGUCCAGGAGUUUACUCCUGCAAUGUCAACAGCUCGCAGUCAAG | -0.0265
GGUCACGUCUCAAUCAACUCUAUCGAGGGGGGGAAAACCCCUUUACCCUCAUCUUCAACAGCUCGCAGUCAAG | 0.159
GGUCACGUCUCAAUCAACUCAUUUUCCAGGGAAAACCCUGGCAUACUCAACAGCUCGCAGUCAAG | 0.135
GGUCACGUCUCAAUCAACUCUAUCCCCAGGGAAAACCCUGGCAUACUCAACAGCUCGCAGUCAAG | -0.182
GGUCACGUCUCAAUCAACUCAGUUCCAGGAGUUUACUCCUGCAUUUUCAACAGCUCGCAGUCAAG | 0.0545
GGUCACGUCUCAAUCAACUCUUCGUCAGGAGUUUUCUCCUGUAAACUCAACAGCUCGCAGUCAAG | -0.0936
GGUCACGUCUCAAUCAACUCUCUCGAGGGGGGGAAAACCCCUUUACCCUCAAUGUCAACAGCUCGCAGUCAAG | -0.0916
GGUCACGUCUCAAUCAACUCAUCCCCCAGGGAAACCCCUGGCUAAUUCAACAGCUCGCAGUCAAG | -0.159
GGUCACGUCUCAAUCAACUCAACUUCAGGAGUUUUCUCCUGCAAUUUCAACAGCUCGCAGUCAAG | 0.0686
GGUCACGUCUCAAUCAACUCAUCUCCCAGGGAAAUCCCUGGCAUUCUCAACAGCUCGCAGUCAAG | 0.0996
GGUCACGUCUCAAUCAACUCUACAGAGGGGGGGAAAACCCCUUUACCCUCAACAUCAACAGCUCGCAGUCAAG | 0.238
GGUCACGUCUCAAUCAACUCAUCCCCAGGAGUUUACUCCUGUAUACUCAACAGCUCGCAGUCAAG | 0.0474
GGUCACGUCUCAAUCAACUCAAUCCCAGGAGUUUUCUCCUGUAAAGUCAACAGCUCGCAGUCAAG | 0.317
GGUCACGUCUCAAUCAACUCCCUCGAGGGGGGGAAAACCCCUUUACCCUCAUACUCAACAGCUCGCAGUCAAG | -0.197
GGUCACGUCUCAAUCAACUCUUUCCCAGGAGUUUUCUCCUGUUUUGUCAACAGCUCGCAGUCAAG | 0.0854
GGUCACGUCUCAAUCAACUCUACUCCCAGGGAAAUCCCUGGCUAUUUCAACAGCUCGCAGUCAAG | -0.355
GGUCACGUCUCAAUCAACUCAUCCCCAGGAGUUUGCUCCUGCAUUUUCAACAGCUCGCAGUCAAG | 0.206
GGUCACGUCUCAAUCAACUCUUCUCCCAGGGAAAGCCCUGGUAAUGUCAACAGCUCGCAGUCAAG | 0.107
GGUCACGUCUCAAUCAACUCAUUCUCAGGAGUUUACUCCUGUUUUUUCAACAGCUCGCAGUCAAG | -0.182
GGUCACGUCUCAAUCAACUCUACUCCCAGGGAAAUCCCUGGCAAUGUCAACAGCUCGCAGUCAAG | 0.107
GGUCACGUCUCAAUCAACUCUUUUUCCAGGGAAACCCCUGGCUUUCUCAACAGCUCGCAGUCAAG | -0.118

Sequence | binding signal (log2 fold change)
GGUCACGUCUCAAUCAACUCUUUUUCCAGGGAAAUCCCUGGCUAUGUCAACAGCUCGCAGUCAAG | 0.167
GGUCACGUCUCAAUCAACUCUCUAGAGGGGGGGAAAACCCCUUUACCCUCAUUUUCAACAGCUCGCAGUCAAG | -0.577
GGUCACGUCUCAAUCAACUCAUUUCCAGGAGUUUCCUCCUGCAUUCUCAACAGCUCGCAGUCAAG | 0.0615
GGUCACGUCUCAAUCAACUCAGUCUCCAGGGAAAUCCCUGGCAAUCUCAACAGCUCGCAGUCAAG | 0.4
GGUCACGUCUCAAUCAACUCAUCGCCCAGGGAAACCCCUGGUAUUUUCAACAGCUCGCAGUCAAG | -0.172
GGUCACGUCUCAAUCAACUCAUUUUCCAGGGAAACCCCUGGCUAUUUCAACAGCUCGCAGUCAAG | -0.00667
GGUCACGUCUCAAUCAACUCUUUCCCCAGGGAAAGCCCUGGUAAUCUCAACAGCUCGCAGUCAAG | -0.0641
GGUCACGUCUCAAUCAACUCAACUCCCAGGGAAACCCCUGGCAAAUUCAACAGCUCGCAGUCAAG | -0.312
GGUCACGUCUCAAUCAACUCAAUGGAGGGGGGGAAAACCCCUUUACCCUCAAAAUCAACAGCUCGCAGUCAAG | 0.547
GGUCACGUCUCAAUCAACUCUACUCCCAGGGAAAGCCCUGGUAAAUUCAACAGCUCGCAGUCAAG | 0.00551
GGUCACGUCUCAAUCAACUCAGUCUCAGGAGUUUUCUCCUGUAUAUUCAACAGCUCGCAGUCAAG | -0.0619
GGUCACGUCUCAAUCAACUCUUUCUCAGGAGUUUCCUCCUGUUAUGUCAACAGCUCGCAGUCAAG | 0.0896
GGUCACGUCUCAAUCAACUCCUCAGAGGGGGGGAAAACCCCUUUACCCUCCAUUUCAACAGCUCGCAGUCAAG | 0.0358
GGUCACGUCUCAAUCAACUCAUUAGAGGGGGGGAAAACCCCUUUACCCUCGUUAUCAACAGCUCGCAGUCAAG | 0.00621
GGUCACGUCUCAAUCAACUCUUCUCCCAGGGAAACCCCUGGCAAAUUCAACAGCUCGCAGUCAAG | 0.154
GGUCACGUCUCAAUCAACUCAUCGGCCAGGGAAACCCCUGGGAAAUUCAACAGCUCGCAGUCAAG | -0.211
GGUCACGUCUCAAUCAACUCUAAAGAGGGGGGGAAAACCCCUUUACCCUCAAACUCAACAGCUCGCAGUCAAG | -0.0897
GGUCACGUCUCAAUCAACUCUUUCUCAGGAGUUUACUCCUGUAAAUUCAACAGCUCGCAGUCAAG | 0.0497
GGUCACGUCUCAAUCAACUCCUCGGAGGGGGGGAAAACCCCUUUACCCUCAAAAUCAACAGCUCGCAGUCAAG | -0.0927
GGUCACGUCUCAAUCAACUCAAUAGAGGGGGGGAAAACCCCUUUACCCUCCACAUCAACAGCUCGCAGUCAAG | -0.0786
GGUCACGUCUCAAUCAACUCCAUAGAGGGGGGGAAAACCCCUUUGCCCUCAACCUCAACAGCUCGCAGUCAAG | 0.239
GGUCACGUCUCAAUCAACUCAUCGUCCAGGGAAAGCCCUGGUUAUUUCAACAGCUCGCAGUCAAG | -0.206
GGUCACGUCUCAAUCAACUCAAUCUCCAGGGAAAUCCCUGGUUUACUCAACAGCUCGCAGUCAAG | -0.0502
GGUCACGUCUCAAUCAACUCAUUUUCCAGGGAAAGCCCUGGUUUACUCAACAGCUCGCAGUCAAG | 0.0588
GGUCACGUCUCAAUCAACUCAGUUUCAGGAGUUUACUCCUGCUUAUUCAACAGCUCGCAGUCAAG | -0.0343

Sequence | binding signal (log2 fold change)
GGUCACGUCUCAAUCAACUCUUCUUCAGGAGUUUUCUCCUGCUAACUCAACAGCUCGCAGUCAAG | 0.0439
GGUCACGUCUCAAUCAACUCAAUUCCAGGAGUUUUCUCCUGCUAUGUCAACAGCUCGCAGUCAAG | 0.179
GGUCACGUCUCAAUCAACUCUUUUUCCAGGGAAAGCCCUGGCUAAUUCAACAGCUCGCAGUCAAG | 0.0598
GGUCACGUCUCAAUCAACUCAUCGUCCAGGGAAACCCCUGGCAAAUUCAACAGCUCGCAGUCAAG | 0.117
GGUCACGUCUCAAUCAACUCUACUUCCAGGGAAACCCCUGGCUAACUCAACAGCUCGCAGUCAAG | -0.031
GGUCACGUCUCAAUCAACUCAUCCCCCAGGGAAAGCCCUGGCUUAUUCAACAGCUCGCAGUCAAG | 0.148
GGUCACGUCUCAAUCAACUCAUUCUCCAGGGAAACCCCUGGCAAAUUCAACAGCUCGCAGUCAAG | -0.0206
GGUCACGUCUCAAUCAACUCUUAAGAGGGGGGGAAAACCCCUUUGCCCUCAAUGUCAACAGCUCGCAGUCAAG | 0.191
GGUCACGUCUCAAUCAACUCUACUUCAGGAGUUUGCUCCUGCAUAUUCAACAGCUCGCAGUCAAG | -0.043
GGUCACGUCUCAAUCAACUCCCCAGAGGGGGGGAAAACCCCUUUGCCCUCAAUAUCAACAGCUCGCAGUCAAG | 0.552
GGUCACGUCUCAAUCAACUCAACUCCCAGGGAAAUCCCUGGUUUAUUCAACAGCUCGCAGUCAAG | -0.0536
GGUCACGUCUCAAUCAACUCAAUCCCAGGAGUUUCCUCCUGCAUAUUCAACAGCUCGCAGUCAAG | 0.145
GGUCACGUCUCAAUCAACUCAUUUCCCAGGGAAAUCCCUGGCUAACUCAACAGCUCGCAGUCAAG | -0.117
GGUCACGUCUCAAUCAACUCAGUCUCAGGAGUUUCCUCCUGCUAAUUCAACAGCUCGCAGUCAAG | -0.0987
GGUCACGUCUCAAUCAACUCAGUCUCAGGAGUUUCCUCCUGUUUUCUCAACAGCUCGCAGUCAAG | -0.0718
GGUCACGUCUCAAUCAACUCAUCGUCCAGGGAAAUCCCUGGCUAUUUCAACAGCUCGCAGUCAAG | 0.00133
GGUCACGUCUCAAUCAACUCUUCGUCAGGAGUUUUCUCCUGCUUUCUCAACAGCUCGCAGUCAAG | -0.0798
GGUCACGUCUCAAUCAACUCCUUAGAGGGGGGGAAAACCCCUUUGCCCUCAUCUUCAACAGCUCGCAGUCAAG | -0.191
GGUCACGUCUCAAUCAACUCUAUUUCCAGGGAAACCCCUGGCUUUUUCAACAGCUCGCAGUCAAG | -0.0653
GGUCACGUCUCAAUCAACUCAAUCUCCAGGGAAAACCCUGGCAUUUUCAACAGCUCGCAGUCAAG | -0.377
GGUCACGUCUCAAUCAACUCUUUCCCAGGAGUUUUCUCCUGUAUACUCAACAGCUCGCAGUCAAG | 0.136
GGUCACGUCUCAAUCAACUCUAACGAGGGGGGGAAAACCCCUUUACCCUCAUCUUCAACAGCUCGCAGUCAAG | -0.323
GGUCACGUCUCAAUCAACUCAAUCUCAGGAGUUUCCUCCUGUAUAUUCAACAGCUCGCAGUCAAG | 0.0237
GGUCACGUCUCAAUCAACUCCCUAGAGGGGGGGAAAACCCCUUUGCCCUCCACAUCAACAGCUCGCAGUCAAG | -0.254
